The text below walks through data of article PMC4336329 (PLoS ONE, 2015).

The structures appear in SMILES notation. Among all 310,000 compounds or so, about 14,000 (4.5%) showed an effect of 50% or more. The effect is printed as a negative number. This is one part of the list.
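Further: peak tail current of the secondary pulse compared with the same well before compound.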

human ether-à-go-go-related gene (hERG) potassium channel, sequence (Q12809 whole entry, looked up): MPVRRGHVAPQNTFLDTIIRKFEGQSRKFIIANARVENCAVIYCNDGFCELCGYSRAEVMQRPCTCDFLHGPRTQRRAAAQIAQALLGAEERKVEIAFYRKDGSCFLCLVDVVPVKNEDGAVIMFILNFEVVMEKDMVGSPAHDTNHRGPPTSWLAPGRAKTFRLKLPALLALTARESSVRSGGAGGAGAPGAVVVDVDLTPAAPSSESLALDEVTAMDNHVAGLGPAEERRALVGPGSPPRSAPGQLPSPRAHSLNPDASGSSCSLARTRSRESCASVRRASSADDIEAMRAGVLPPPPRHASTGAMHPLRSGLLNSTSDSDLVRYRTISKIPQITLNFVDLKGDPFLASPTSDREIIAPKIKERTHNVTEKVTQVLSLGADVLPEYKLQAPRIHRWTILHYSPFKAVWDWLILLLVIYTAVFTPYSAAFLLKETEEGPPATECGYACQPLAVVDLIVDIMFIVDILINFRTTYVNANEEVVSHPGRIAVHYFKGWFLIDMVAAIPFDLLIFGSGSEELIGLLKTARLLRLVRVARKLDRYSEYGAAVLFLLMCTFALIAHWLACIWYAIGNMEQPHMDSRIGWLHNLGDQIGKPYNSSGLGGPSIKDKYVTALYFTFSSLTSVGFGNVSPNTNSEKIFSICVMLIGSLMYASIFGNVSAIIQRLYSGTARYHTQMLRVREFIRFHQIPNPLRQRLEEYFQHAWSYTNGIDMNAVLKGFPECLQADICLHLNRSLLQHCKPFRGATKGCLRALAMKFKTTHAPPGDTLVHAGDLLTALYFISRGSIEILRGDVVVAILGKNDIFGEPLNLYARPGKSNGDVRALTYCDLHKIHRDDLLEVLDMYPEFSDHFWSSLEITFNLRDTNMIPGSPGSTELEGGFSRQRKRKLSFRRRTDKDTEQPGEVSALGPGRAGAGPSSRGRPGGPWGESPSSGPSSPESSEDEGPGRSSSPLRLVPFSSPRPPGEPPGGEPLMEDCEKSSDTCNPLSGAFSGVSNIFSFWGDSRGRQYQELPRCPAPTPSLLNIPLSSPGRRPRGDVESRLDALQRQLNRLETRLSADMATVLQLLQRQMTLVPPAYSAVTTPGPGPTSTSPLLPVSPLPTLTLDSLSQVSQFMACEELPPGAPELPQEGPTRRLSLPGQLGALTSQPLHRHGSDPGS

This assay addresses human ether-à-go-go-related gene (hERG) potassium channel (human, UniProt Q12809). Put plainly: primary screen, population patch clamp on CHO cells stably expressing hERG.
For the molecule `O=c1c2c(nc3cc(-c4ccccc4Cl)[nH]n13)CCS2`, the “hERG current change (%, negative = inhibition) at 10uM” value stood at 15.9%.
As for `Cc1cccc(NC(=O)CCS(=O)(=O)c2ccc3c(c2)NC(=O)CS3)n1`, the figure is 12.1%; as for `Cl.Oc1ccc(Nc2ncnc3scc(-c4ccccc4)c23)cc1`, 0.696%.
For the molecule `COc1ccc2[nH]c(=O)c(-c3nnn(-c4ccc(Cl)nc4)n3)cc2c1`, the “hERG current change (%, negative = inhibition) at 10uM” value stood at 11.9%.
As for `CCOC(=O)CNC(=S)N(CCCN1CCCCC1)Cc1cccs1`, the figure is -62.6%; as for `CN(C)S(=O)(=O)c1cc(NC(=O)Cn2ccsc2=N)ccc1Cl.Cl`, -56.3%; as for `CCOc1cc2c3c(c1)C1(C(=O)N3C(C)(C)CC2C)C(C#N)=C(N)N2C(=C1C#N)Nc1ccccc12` (stereo not drawn), 2.65%.
In the case of `Cc1cc(C)c(S(=O)(=O)N2CCN(C(=O)CN3C(=O)NC4(CCCC4)C3=O)CC2)c(C)c1`, the “hERG current change (%, negative = inhibition) at 10uM” value turned out to be 7.42%.
As for `CCN(CC)c1ccc(C(=O)NNC(=O)CN2C(=O)NC3(CCCCC3)C2=O)cc1`, the figure is -1.43%.
As for `CCOCCCNC(=O)CCN1C(=O)c2ccccc2Sc2ncccc21`, the figure is 26.2%; as for `COc1ccc2nc(SCC(=O)NN)cc(C)c2c1`, -6.7%.
Turning to `CC(=O)Nc1cccc(OCC(=O)Nc2ccc(F)cc2)c1`, the “hERG current change (%, negative = inhibition) at 10uM” value is recorded as -42.8%.
To `CNC(=O)C(=O)NCC1OCCCN1S(=O)(=O)c1ccc(F)cc1C` (stereo not drawn) belongs 12%.
As for `O=[N+]([O-])c1cccc(-n2cc3ccc([N+](=O)[O-])cc3n2)c1`, the figure is 1.68%; as for `CC(=O)COc1ccc2c(-c3ccccc3)cc(=O)oc2c1`, -1.91%.
As for `O=C(NCCC1CCCC1)c1cccs1`, the figure is -9.54%; as for `CC(C)CC(NC(N)=O)C(=O)NCCc1ccc(Cl)cc1` (stereo not drawn), 27.5%; as for `CC(C)=C(C#N)c1nc2ccccc2s1`, -9.82%.
Turning to `COc1ccc(NC(=O)Cn2c(NCC(C)O)nc3ccccc32)cc1Cl` (stereo not drawn), the “hERG current change (%, negative = inhibition) at 10uM” value was found to be 15.6%.
To `CN1CCN(CCCNC(=O)Nc2cccc3ccccc23)CC1` belongs 1.38%; to `O=C(COc1ccc(S(=O)(=O)NC2CCCCC2)cc1)NC1CCCC1`, -8.19%; to `COc1ccc(C(=O)OCC(=O)c2ccc(C)c(S(=O)(=O)N3CCOCC3)c2)cc1OC`, -45.8%.
For the molecule `N#Cc1ccc(-c2nc3cc(Cl)ccc3c(=O)n2O)cc1`, the “hERG current change (%, negative = inhibition) at 10uM” value turned out to be 7.51%.
As for `CCOC(=O)c1c(-c2ccc(OC)cc2)oc2ccc(OCC(N)=O)cc12`, the figure is 16%; as for `COc1ccc(C2CC3(CC(C)(C)NC(=S)N3)Oc3cc(O)cc(C)c32)cc1OC` (stereo not drawn), 17.1%; as for `COc1ccc(NC(=O)CN(C)C(=O)c2ccccc2OC)cc1`, 18.4%.
To `CCOc1ccc(OCC(=O)NCCc2nc3ccccc3[nH]2)cc1` belongs -34.6%; to `COc1ccc(C2c3ccc4ccccc4c3Oc3ncn(CCN4CCOCC4)c(=N)c32)cc1` (stereo not drawn), -74.1%.
To `Cc1c(C(=O)Nc2ccccc2)sc2ncn(CC(=O)N3CCCCC3)c(=O)c12` belongs -16%; to `CCOC(=O)N1CCN(C(=O)CSc2ccc(Cl)cc2)CC1`, -26.7%.
Turning to `Nc1ccc(C2(c3ccc(N)cc3)C(=O)Nc3ccccc32)cc1`, the “hERG current change (%, negative = inhibition) at 10uM” value is recorded as -0.0135%.
In the case of `COc1ccc(CNC(=O)CN(c2ccc(OC)cc2)S(=O)(=O)c2c(C)[nH]c(=O)[nH]c2=O)cc1`, the “hERG current change (%, negative = inhibition) at 10uM” value amounted to 17%.
For the molecule `O=C(Nc1ccccc1N1CCCC1)c1cccnc1Cl`, the “hERG current change (%, negative = inhibition) at 10uM” value stood at 4.72%.
As for `C=CCOc1ccccc1CNc1ccc2[nH]c(=O)[nH]c2c1`, the figure is -0.534%.
To `Cc1cc(/C=C2/SC(=O)N(CC(=O)N3CCOCC3)C2=O)c(C)n1-c1ccccc1F` belongs -3.42%; to `CCOC(=O)C1=C(CNC2CCCCC2)NC(=O)NC1c1cc(C)ccc1C` (stereo not drawn), 8.55%; to `COc1ccccc1NC(=O)Cn1nc(C)n2cccc2c1=O`, 11.4%.
As for `COc1ccccc1CNC(=O)c1ccc(NS(C)(=O)=O)cc1`, the figure is -10.6%.
For the molecule `CCOc1cc(-c2nc(-c3ccc(C)nc3OCC)no2)cc(OCC)c1OCC`, the “hERG current change (%, negative = inhibition) at 10uM” value came to 17.7%.
As for `CCc1ccc(C2c3[nH]c4ccccc4c3CCN2C(=O)CNC(N)=O)cc1` (stereo not drawn), the “hERG current change (%, negative = inhibition) at 10uM” value is -12.2%.
As for `Cc1ccc(NS(=O)(=O)c2cccs2)c(C)c1`, the figure is -2.42%.
As for `O=C(CCC1CCN(Cc2ccccc2O)CC1)NC1CC1`, the figure is -23.7%; as for `COc1ccc(NS(=O)(=O)c2cccc(C(=O)NCC(c3ccco3)N3CCCCC3)c2)cc1` (stereo not drawn), -31.5%.
As for `CSc1ncccc1C(=O)OCC(=O)NC1CCCC1`, the figure is 2.56%; as for `Cc1cc(C)cc(NC(=O)N2CCCN(c3c(Cl)cncc3Cl)CC2)c1`, 17.4%.
With `CCN(CC)C(=O)CSc1nnc(-c2ccncc2)n1N`, the “hERG current change (%, negative = inhibition) at 10uM” value was 13.4%.
As for `Cc1cnc(C(=O)OCC(=O)NCc2cccc(Cl)c2)cn1`, the figure is 0.546%.
As for `O=C(NC1CCCCC1)c1cc(C2CC2)on1`, the figure is 12.4%.
As for `O=C(Nc1cccnc1Cl)C1c2ccccc2Oc2ccccc21`, the figure is -0.399%; as for `Cc1ccc(S(=O)(=O)NCCSCc2ccccc2)cc1`, -6.05%; as for `Cc1cc2ccccc2n2c(SCC(=O)Nc3ccc(S(=O)(=O)N4CCC(C)CC4)cc3)nnc12`, 13.3%.
For the molecule `CCN(CC)CCNC(=O)/C(=C/c1cn(C)c2ccccc12)NC(=O)c1ccc(OC)c(OC)c1`, the “hERG current change (%, negative = inhibition) at 10uM” value is 3.9%.
For the molecule `CCOC(=O)N1CCN(C(=O)C2CCN(S(=O)(=O)c3ccc(OC)cc3)CC2)CC1`, the “hERG current change (%, negative = inhibition) at 10uM” value came to 9.63%.
To `CC(C)(CC(=O)O)CC(=O)Nc1ccc(Cl)c(Cl)c1` belongs 14.1%; to `CC(C)(C)c1nnc(NC(=O)c2cccs2)s1`, 27.7%.
Regarding `Cc1n[nH]c(=O)nc1N/N=C/c1ccc(O)c([N+](=O)[O-])c1`, the “hERG current change (%, negative = inhibition) at 10uM” value is -11.8%.
As to `Cc1cc(C)c(NC(=O)c2oc3ccccc3c2COc2ccccc2)c(C)c1`, the “hERG current change (%, negative = inhibition) at 10uM” value was determined as 11.7%.
